In publication PMC4336329 (PLoS ONE, 2015):
Screen size: about 310,000 compounds; about 14,000 (4.5%) showed an effect of 50% or more. Effects have a minus sign here. This is one part of the list.

biological target: human ether-à-go-go-related gene (hERG) potassium channel (human, UniProt Q12809); test: primary screen, population patch clamp on CHO cells stably expressing hERG
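Note: peak tail current of the secondary pulse compared with the same well before compound.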

human ether-à-go-go-related gene (hERG) potassium channel, sequence (Q12809 whole entry, looked up): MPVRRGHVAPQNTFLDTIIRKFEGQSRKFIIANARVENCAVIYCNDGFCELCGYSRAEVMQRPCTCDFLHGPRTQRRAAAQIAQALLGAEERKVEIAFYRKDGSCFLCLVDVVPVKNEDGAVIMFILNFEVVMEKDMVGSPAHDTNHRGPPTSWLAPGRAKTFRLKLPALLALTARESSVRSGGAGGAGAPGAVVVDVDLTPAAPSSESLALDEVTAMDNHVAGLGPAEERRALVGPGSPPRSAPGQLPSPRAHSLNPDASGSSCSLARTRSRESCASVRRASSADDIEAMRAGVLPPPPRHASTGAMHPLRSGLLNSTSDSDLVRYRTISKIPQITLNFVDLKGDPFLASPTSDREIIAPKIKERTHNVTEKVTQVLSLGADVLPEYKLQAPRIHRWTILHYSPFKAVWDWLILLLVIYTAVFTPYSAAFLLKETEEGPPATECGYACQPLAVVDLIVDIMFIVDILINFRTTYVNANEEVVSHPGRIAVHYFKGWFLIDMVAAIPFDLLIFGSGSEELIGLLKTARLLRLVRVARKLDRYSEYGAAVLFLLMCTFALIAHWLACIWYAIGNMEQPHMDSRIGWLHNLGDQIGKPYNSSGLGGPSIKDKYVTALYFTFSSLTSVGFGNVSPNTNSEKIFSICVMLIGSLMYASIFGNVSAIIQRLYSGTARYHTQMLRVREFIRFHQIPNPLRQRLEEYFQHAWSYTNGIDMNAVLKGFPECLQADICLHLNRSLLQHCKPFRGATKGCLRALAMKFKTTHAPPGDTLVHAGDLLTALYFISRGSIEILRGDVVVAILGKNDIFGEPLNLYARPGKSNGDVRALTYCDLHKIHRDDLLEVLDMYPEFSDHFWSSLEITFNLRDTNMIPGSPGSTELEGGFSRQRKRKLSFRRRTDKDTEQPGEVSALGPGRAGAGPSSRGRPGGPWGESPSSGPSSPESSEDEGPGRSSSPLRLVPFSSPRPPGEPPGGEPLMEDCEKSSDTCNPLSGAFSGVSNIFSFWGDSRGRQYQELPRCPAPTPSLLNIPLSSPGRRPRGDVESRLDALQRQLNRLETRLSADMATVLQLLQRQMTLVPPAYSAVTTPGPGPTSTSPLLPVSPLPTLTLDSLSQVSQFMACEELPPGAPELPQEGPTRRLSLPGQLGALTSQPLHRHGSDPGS

Structure (SMILES)	hERG current change (%, negative = inhibition) at 10uM [%]
Cc1cc(C)c(C)c(OCCOCCN2CCN(C)CC2)c1	-1.93
Cc1ccc(Oc2nn[nH]n2)cc1	0.395
Cc1ccc(S(=O)(=O)N2CCN(S(C)(=O)=O)C2c2ccccc2)cc1 (centres unmarked)	-37.2
CN1C(=O)C(=Cc2ccc(SC3CCCCC3)o2)C(=O)N(C)C1=O	0.95
O=C(O)c1ccc(S(=O)(=O)Nc2ccc(F)c(Cl)c2)cc1	13.4
Cc1cccc2cc(CN(Cc3cccnc3)C(=O)c3ccccc3F)c(Cl)nc12	-49.6
CSc1nsc(NC(=O)Nc2ccccc2)n1	6.64
CCn1nc(C)c(NS(=O)(=O)c2ccccc2)c1C	4.32
Cc1c(C)n(C)c2ccc(C(=O)N3CCN(c4ccccn4)CC3)cc12	-12.7
CCOc1cccc(CNCCc2c(C)[nH]c3ccc(OC(F)(F)F)cc23)c1O.O=C(O)C(=O)O	-51.9
CCOC(=O)c1cnc(SCC)[nH]c1=O	-3.67
O=C(Cn1ncn2c(cc3ccccc32)c1=O)NCc1ccco1	-1.39
O=c1ccnc(Nc2ccc(Cl)cc2)[nH]1	-10.3
COC(=O)/C(=C/c1ccc(OC)cc1)NC(=O)c1ccco1	9.25
Cc1cccc(OCC(=O)Nc2c3c(nn2C(C)(C)C)CS(=O)(=O)C3)c1	-4.45
CCCCn1c(N)c(C(=O)OCCOC)c2nc3ccccc3nc21	-42.4
CCN1C(=O)[C@@H]2[C@H](C1=O)[C@@H]1CC(C(=O)OC)=C[C@@H](C(=O)OC)C3C1=C(C(=O)C3(CC)CC)[C@@H]2C (some centres unmarked)	-1.09
CC(Oc1ccc2ccc(=O)oc2c1)C(=O)NCC1CCC(C(=O)O)CC1 (centres unmarked)	-14.3
COc1ccc(C(=O)Nc2nnc(Cc3ccc(OC)c(OC)c3)s2)c(OC)c1	-3.97

Structure (SMILES)	hERG current change (%, negative = inhibition) at 10uM [%]
Cl.O=C(NCCN1CCN(c2ccccc2)CC1)c1cccc(Cl)c1	-54.2
CC(=O)c1cccc(NC(=O)c2csc3c2CCCCC3)c1	-3.35
Nc1c(N(CCC2=CCCCC2)C(=O)Cc2ccccc2F)c(=O)[nH]c(=O)n1Cc1ccccc1	-28.1
Cn1cc(S(=O)(=O)N2CCN(c3cccc(C(F)(F)F)c3)CC2)c(=O)n(C)c1=O	-31.4
Cn1cc([N+](=O)[O-])cc1-c1nc2ccccc2n1C	0.157
Cc1ccc(S(=O)(=O)Nc2cc3c(cc2N2CCOCC2)n(C)c(=O)c(=O)n3C)cc1	-9.6
Br.CCCc1cc(-c2nc(-c3ccc(Br)cc3)cs2)ccn1	15.3
C=CCN(CC=C)C(=S)NC(=O)c1ccc(OC)cc1	12.4
O=C1/C(=C/c2cc3c(cc2Cl)OCO3)N2CCC1CC2	1.1
CC(C)(c1ccccc1)c1ccc(OCC2CO2)cc1 (centres unmarked)	6.41
Cc1ccc(O)c(NC(=O)c2noc3c2CCc2ccccc2-3)c1	7.39
CC(NC(=O)Nc1ccccc1)C(c1cccs1)N1CCN(c2ccccc2)CC1 (centres unmarked)	5.89
O=C(C1=C[C@@H](c2coc3ccccc3c2=O)C[C@@H](OCc2ccc(CO)cc2)O1)N1CCN(Cc2ccccc2)CC1	-48
COCCNC(=O)C(c1ccc(Cl)cc1)N(CCOC)C(=O)CCC(=O)Nc1ccccn1 (centres unmarked)	-1.76
O=C(Nn1c(SCc2cccc([N+](=O)[O-])c2)nc2ccccc2c1=O)c1ccccc1	-1.31
S=C(NCCN1CCOCC1)Nc1cccc(Cl)c1	-10.9
COc1ccc(/C=C/C(=O)Oc2ccc(/C=N/NC(=O)c3ccncc3)cc2)cc1	-7.6
Cn1c(=O)c(S(=O)C2CCCCC2)c(O)c2ccccc21 (centres unmarked)	7.79
CC1CCN(S(=O)(=O)c2cc(F)ccc2CN2C(=O)c3cccnc3C2=O)CC1	-60.4

Structure (SMILES)	hERG current change (%, negative = inhibition) at 10uM [%]
Cc1ccc(Cn2nc(C)c(/C=N/NC(=O)c3cccnc3)c2C)cc1	-4.88
Cc1ncc(CN2CCCC(CCC(=O)NCc3ccccc3F)C2)s1 (centres unmarked)	17.8
COc1ccc(CNC(=S)Nc2cccc(C)c2C)cc1	-1.56
CC1OC(OCC2OC(Oc3c(-c4ccc(O)cc4)oc4cc(O)cc(O)c4c3=O)C(O)C(O)C2O)C(O)C(O)C1O (centres unmarked)	13.7
COc1ccccc1N1CCN(C(=O)c2ccc(Cl)c(S(=O)(=O)NCc3ccco3)c2)CC1	-14.2
COC(=O)C1=C(c2ccc(F)cc2F)C[C@@H]2CC[C@H]1N2C	8.44
Fc1cccc(CN2CCN(c3ncccn3)CC2)c1	-6.63
O=C1OC(N2CCN(Cc3ccccc3)CC2)c2ccccc21 (centres unmarked)	15.4
COc1cc(C2C(C(C)=O)=C(O)C(=O)N2CCN2CCOCC2)ccc1O (centres unmarked)	4.41
Cc1ccc(S(=O)(=O)c2nnn3c2nc(N2CCC(C(N)=O)CC2)c2ccccc23)cc1	-0.198
N#C/C(=C\c1ccc(OCCN2CCOCC2)cc1)C(=O)Nc1ccccc1	-5.42
COc1ccc(C(=O)NC2=C(C#N)CCC2)cc1OC	9.08
O=C(NNS(=O)(=O)c1ccccc1F)c1cccc(S(=O)(=O)N2CCOCC2)c1	-4.04
CC[C@@H](C)C(N)c1cn([C@@H](CCC(=O)O)C(=O)N2CCNCC2)nn1.Cl (some centres unmarked)	9.17
COc1cccc(NC(=O)CN(C)C(=O)CCCNC(=O)c2ccc(Cl)cc2)c1	-46.5
CN(C)CCN1C(=O)c2ccccc2C1=O	21.7
COc1ccc(SCCc2ccncc2)cc1.Cl	-7.45
CCOC(=O)C1(CCOC)CCN(Cc2ccc(COC)o2)CC1	32.9
